# According to US20240043504A1:
# B1: mAb10934 (antibody)
# heavy: [about 100 residues left out]ARWDWYFDLWGRGTLVTVSS[human IgG1 constant region left out]
# light: DIQMTQSPSSLSASVGDRVTITCQASQDIWNYINWYQQKPGKAPKLLIYDASNLKTGVPSRFSGSGSGTDFTFTISSLQPEDIATYYCQQHDDLPPTFGQGTKVEIKRTVAAPSVFIFPPSDEQLKSGTASVVCLLNNFYPREAKVQWKVDNALQSGNSQESVTEQDSKDSTYSLSSTLTLSKADYEKHKVYACEVTHQGLSSPVTKSFNRGEC
# B2: mAb10935 (antibody)
# heavy: EVQLVESGGGLVQPGGSLRLSCAASGFTVSSNYMSWVRQAPGKGLEWVSLIYSGGSTYYADSVKGRFTISRHNSKNTLYLQMNSLRSEDTAVYYCARVPLGDYYYGMDVWGQGTTVTVSS[human IgG1 constant region left out]
# light: B1 light with W30N, N31K, I33L, K55E, H91S, D93N, P96L, Q100G
# B3: mAb10920 (antibody)
# heavy: QVQLVESGGGVVQPGRSLRLSCAASGFTFSYYGMHWVRQAPGKGLEWVAVIWYDGSNKFYADSVKGRFTISRDNSKNTLYLQMNSLRAEDTAVYYCAAARPGYYYGMDVWGQGTTVTVSS[human IgG1 constant region left out]
# light: DIQMTQSPSSLSASVGDRVTITCRASQGISNYLAWFQQKPGKAPNSLIYAASSLQRGVPSKFSGSGSGTDFTLTISSLQPEDFATYYCQQYNSYPRTFGQGTKVEIKRTVAAPSVFIFPPSDEQLKSGTASVVCLLNNFYPREAKVQWKVDNALQSGNSQESVTEQDSKDSTYSLSSTLTLSKADYEKHKVYACEVTHQGLSSPVTKSFNRGEC
# B4: mAb10921 (antibody)
# heavy: EVQLVESGGGLVQPGGSLRLSCAASGITVSSNYMSWVRQAPGKGLEWVSVIYSGGSTFYADSVKGRFTISRHNSKNTLYLQMNSLRAEDTAVYYCARERNFDAFDIWGQGTMVTVSS[human IgG1 constant region left out]
# light: DIQMTQSPSSVSASVGDRVTITCRASQGISSWLAWYQQKPGKAPKLLIYAASSLQSGVPSRFSGSGSGTDFTLTISSLQPEDFATYYCQQANSFPLFTFGPGTKVDIKRTVAAPSVFIFPPSDEQLKSGTASVVCLLNNFYPREAKVQWKVDNALQSGNSQESVTEQDSKDSTYSLSSTLTLSKADYEKHKVYACEVTHQGLSSPVTKSFNRGEC
# B5: mAb10930 (antibody)
# heavy: EVQLVESGGGLVQPGRSLRLSCAASGFTFDDYAMYWVRQAPGKGLEWVSGISWNSGSIGYADSVKGRFTISRDNAKNSLYLQMNSLRAADTALYYCAKDKDWNSRGYYYYGMDVWGQGTTVTVSS[human IgG1 constant region left out]
# light: [about 100 residues left out][about 100 residues left out]
# B6: mAb10938 (antibody)
# heavy: EVQLVESGGGLVQPGGSLRLSCAVSGFTVSSNYMSWVRQAPGKGLEWVSLIYSGGSTFYADSVKGRFTISRHNSKNTLYLQMNSLRAEDTAVYYCAREGGYSYDYNYWGQGTLVTVSS[human IgG1 constant region left out]
# light: B1 light with W30R, I33L, K55E, S65I, H91Y, D93N, P96I, K103R, V104L
# B7: mAb10964 (antibody)
# heavy: QVQLQESGPGLVKPSETLSLTCTVSGGSINNYYWIWIRQPPGKGLEWIGYIYHSGSTNYNPSLKSRVTISVDTSKNQFSLKVSSVTAADTAVYYCANMVRGVYEDDYWGQGTLVTVSS[human IgG1 constant region left out]
# light: DIQMTQSPSSLSASVGDRVTITCRASQSISNYLNWYQQKPGKAPKLLIFAASSLRSGVPSRFSGSGSGTDFTLTISSLHPEDFATYYCQQNYNTPLTFGPGTKVDIKRTVAAPSVFIFPPSDEQLKSGTASVVCLLNNFYPREAKVQWKVDNALQSGNSQESVTEQDSKDSTYSLSSTLTLSKADYEKHKVYACEVTHQGLSSPVTKSFNRGEC
# B8: mAb10966 (antibody)
# heavy: EVQLVESGGGLVQPGGSLRLSCAASGLTVSSNYMSWVRQAPGKGLEWVSVIYSGGSTFYADSVKGRFTISRDNSKNTLYLQMNSLRPEDTAVYYCAREGRIAATGYGMDVWGQGTTVTVSS[human IgG1 constant region left out]
# light: B1 light with W30S, I33L, K55G, G66R, Q89H, H91Y, D93N, P96Q, Q100P, E105D
# B9: mAb10954 (antibody)
# heavy: EVQLVESGGGLVQPGGSLRLSCAASGITVSSNYMSWVRQAPGKGLEWVSLIYSGGSTYYADSVKGRFTISRDNSKNTLYLQMNSLRVEDTAVYYCARDHGMAAAGYNYWGQGTLVTVSS[human IgG1 constant region left out]
# light: B1 light with W30N, N31K, I33L, K55E, S76N, I83F, Y87F, H91Y, D93N, T97A
# B10: mAb10955 (antibody)
# heavy: EVQLVESGGGLVQPGGSLRVSCAASGFTVSRNYMSWVRQAPGKGLEWVSVIYSGGSTFYADSVKGRFTISRDNSKNTLYLQMNSLRAEDTAIYYCARYIPRFDPWGQGTLVTVSS[human IgG1 constant region left out]
# light: B1 light with W30S, I33L, Y36F, K42R, K55E, H91Y, D93N, P96I, K103R, V104L
# Molecular target: SARS-CoV-2 Spike Protein (RBD)(R319-F541).mmH (SARS-CoV-2)
# Test: Luminex, supernatant
# Details: remark: other sources report otherwise
binder,measurement,value
B1,MFI,33800 MFI and 32600 MFI
B2,MFI,34900 MFI and 32600 MFI
B3,MFI,34800 MFI and 34400 MFI
B4,MFI,25000 MFI and 23600 MFI
B5,MFI,25100 MFI
B6,MFI,29400 MFI and 27100 MFI
B7,MFI,31800 MFI and 28900 MFI
B8,MFI,30900 MFI and 27400 MFI
B9,MFI,30400 MFI and 28300 MFI
B10,MFI,29600 MFI and 28500 MFI

# Residue numbers refer to the chain shown, from its start. “And” between values parts separate entries of the source, which are not always exact repeats. Equal entries are not always repeated.
